From PubChem BioAssay AID1159614 (National Center for Advancing Translational Sciences (NCATS), 2016)
The campaign covered roughly 45,000 compounds. About 65 (0.1%) were called active. Calls come from the whole dose curve; as a rule, active = well fitted activation curve with a large enough effect; inconclusive = small, poorly fitted or top-dose-only effect; inactive = no such curve, though single readings can be large or run the other way. The list shows a part of the results.

Target: Galactocerebrosidase (Homo sapiens) (UniProt P54803)
Chain of UniProt P54803 (P54803 whole entry, looked up): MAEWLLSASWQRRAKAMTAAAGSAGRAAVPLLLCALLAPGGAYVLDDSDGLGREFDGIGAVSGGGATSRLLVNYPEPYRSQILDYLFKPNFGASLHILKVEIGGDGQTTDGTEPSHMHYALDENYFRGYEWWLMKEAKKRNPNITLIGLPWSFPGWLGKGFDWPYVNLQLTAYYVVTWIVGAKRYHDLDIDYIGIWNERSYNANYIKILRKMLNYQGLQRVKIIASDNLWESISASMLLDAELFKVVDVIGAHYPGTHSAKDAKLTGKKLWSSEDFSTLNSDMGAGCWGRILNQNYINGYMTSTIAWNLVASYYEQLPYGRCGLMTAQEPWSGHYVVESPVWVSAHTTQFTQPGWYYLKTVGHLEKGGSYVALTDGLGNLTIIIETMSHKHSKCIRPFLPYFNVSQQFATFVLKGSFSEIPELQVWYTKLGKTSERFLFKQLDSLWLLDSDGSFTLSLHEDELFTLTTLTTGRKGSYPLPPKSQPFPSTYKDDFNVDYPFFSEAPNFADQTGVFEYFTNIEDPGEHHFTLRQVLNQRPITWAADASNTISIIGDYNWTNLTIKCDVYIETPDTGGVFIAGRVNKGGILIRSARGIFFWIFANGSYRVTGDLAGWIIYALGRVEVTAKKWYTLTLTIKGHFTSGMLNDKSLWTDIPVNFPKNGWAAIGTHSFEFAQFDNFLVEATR
Assay: A Novel Cell-Based Assay to Identify Small Molecules for B -Galactocerebrosidase; note: 0% is about no effect; nearly all actives have a fitted effect of over 65% in size
Settings: 145M-Twi-hGALC-G270D cells (Twitcher mouse brain line with human GALC G270D), HMU-beta-Gal fluorescence, 48 h; series mostly up to 57.5 µM; activation: at the top concentration
In short: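 Live 145M-Twi cells (Twitcher mouse brain-derived, GALC-null) stably expressing human GALC-G270D, with a wild-type GALC line, were compound-treated. Residual GALC activity was then read as fluorescence from 0.1 mM final HMU-β-gal at pH 5.2; higher signal means activation.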

activation, inactive:
COc1ccc(N2CC(NC(=O)C3CCCC3)CC2=O)cc1 (stereo unspecified) -9.08%, COc1ccc2nc(NC(=O)c3nc(SCc4cccc(C)c4)ncc3Cl)sc2c1 -5.82%, COc1ccc(OC)c(CNC(=O)CCC(=O)N2Cc3ccccc3Oc3ncccc32)c1 -5.8%, CCOc1ccccc1NC(=O)c1nn(-c2ccc(OC)cc2)c(=O)c2c1c1ccccc1n2C -6.35%, O=C(c1cccc([N+](=O)[O-])c1)N1CCN(CCc2ccncc2)CC1 5.24%, Cc1ccc(NC(=O)CN2C(=O)COc3ccc(S(=O)(=O)N4CCOCC4)cc32)c(Cl)c1 -7.11%, CCOc1ccc(NC(=O)Cn2c(=O)n(Cc3ccccc3)c(=O)c3c4c(sc32)CN(C(C)=O)CC4)cc1 -16.6%, CC(C)(C)c1ccc(S(=O)(=O)N2CCC(c3ccncc3)CC2)cc1 -4.25%, Cc1nc(SCCOc2ccc(Cl)cc2)[nH]c(=O)c1Cc1ccccc1 3.39%, COc1cccc(-n2cc(C(=O)Nc3ccccc3C(N)=O)c3ccccc3c2=O)c1 -14.1%, CC(=O)c1c(C)oc2ccc(N(C(=O)c3ccncc3)S(=O)(=O)c3ccc(F)cc3C)cc12 -22.1%, COc1ccc(N(CC(=O)N2CCN(c3ccc(F)cc3)CC2)S(=O)(=O)c2c(C)nn(C)c2C)cc1 -12.5%, Cc1cc(C)cc(NC(=O)CN(C)S(=O)(=O)c2ccc3c(c2)CCC(=O)N3)c1 -23%, Cc1cccc(C(=O)Nc2sc3c(c2C(=O)O)CCCC3)c1 -6.75%, CCCOc1ccc(C2C(=O)N(C3CCCCC3)CC(=O)N2CCC2=CCCCC2)cc1OC (stereo unspecified) -11.9%, Cc1ccc(CNC(=O)c2cnn(-c3ccc(F)cc3F)c2C2CCN(C(=O)OC(C)(C)C)CC2)cc1 -8.71%, CCOC(=O)C(CC)Sc1nnc2[nH]c(=O)cc(C)n12 (stereo unspecified) -27.5%, COc1cccc(CNC(=O)CC(c2ccc(C)cc2)N2Cc3ccccc3C2=O)c1 (stereo unspecified) -1.49%, COc1ccc(NS(=O)(=O)c2ccc3c(c2)n(C)c(=O)c(=O)n3C)cc1Cl -21.1%, COc1cccc(CNC(=O)c2cccc(NC(=O)c3nsc4ccccc34)c2)c1 -9.49%, COc1cc(Cl)c(NC(=O)CN(C)S(=O)(=O)c2ccc3[nH]c4c(c3c2)CCCC4)c(OC)c1 -16.3%, Cc1ccccc1NC(=O)CSc1nnc(-c2cccc(Cl)c2)o1 -3.53%, CCOC(=O)c1cc2c(=O)n3ccccc3nc2n(CC2CCCO2)c1=NC(=O)c1ccccc1F (stereo unspecified) -7.91%, COc1ccc(CNC(=O)C(C)n2nc(C)c3sc4ccccc4c3c2=O)cc1OC (stereo unspecified) -7.63%, CCc1ccc(Cn2c(CNS(=O)(=O)c3ccc(Cl)s3)nc3cccnc32)cc1 0.542%, COc1ccccc1-c1ccnc2c(-c3ccc(Br)cc3)c(C)nn12 -8.39%, COc1cc(-c2nc3cnccn3c2Nc2ccc(C(C)C)cc2)ccc1O -25.1%, O=C(CSc1n[nH]c(-c2ccccc2)n1)NCCc1ccccc1 -3.96%, COc1cccc(CNC(=O)CCS(=O)(=O)c2cc3c4c(c2)CCN4C(=O)CC3)c1 -14.2%, Cc1csc2nc(-c3cccc(NC(=O)c4ccccc4F)c3)cn12 -0.299%, Cc1nn2c(=O)cc(COC(=O)c3ccc(NC(=O)c4ccc(C(C)(C)C)cc4)cc3)nc2s1 -1.36%, Cc1noc2ncnc(N3CCCC(C(=O)NCCC(C)C)C3)c12 (stereo unspecified) -9.85%, COc1ccc(S(=O)(=O)N2CCC(c3nnc(-c4ccccc4C)o3)CC2)c(OC)c1 -18.4%, Cc1nn2c(=O)cc(COC(=O)c3ccccc3NC(=O)C(C)C)nc2s1 -7.48%, COc1cccc(-n2cc(C(=O)Oc3ccc(F)cc3)c3ccccc3c2=O)c1 -10.4%, COc1cc(C(=O)Nc2cccc(OCc3cc(=O)n4c(C)csc4n3)c2)cc(OC)c1OC -4.94%, Cc1ccc(S(=O)(=O)c2c(Nc3ccccc3)sc(C(=O)c3ccc4c(c3)OCO4)c2N)cc1 -12.8%, O=C(NCc1ccc2c(c1)CCN2C(=O)c1ccncc1)c1ccccc1Br -23.5%, CCCNC(=O)CCn1nc(-c2ccc(C)cc2)c2ccccc2c1=O -1.4%, Nc1nc(N)c(-c2ccccc2)s1 -14.1%, COc1ccc(-c2nc(SCC(=O)NCC3CCCO3)c(-c3ccc(Cl)cc3)[nH]2)cc1 (stereo unspecified) -12.8%, Cc1c(Cl)ccc2sc(NC(=O)c3ccc(S(=O)(=O)N4CCCC4)cc3)nc12 -5.84%, COc1ccc(OC)c(NC(=O)Cn2ccn(-c3ccc(F)cc3)c(=O)c2=O)c1 -10.3%, Cc1ccc2ncc(C(=O)Nc3cccc(C(F)(F)F)c3)c(=O)n2c1 -24.7%, CCCC12CN3CC(C)(CN(C1)C3c1ccc(CC)cc1)C2=O (stereo unspecified) -25.4%, CCOC(=O)c1ccc2ncc(C(=O)OCC)c(NCCc3ccc(OC)c(OC)c3)c2c1 3.52%, CCc1ccc(OCC(=O)NCC(c2ccc(Cl)cc2)N2CCOCC2)cc1 (stereo unspecified) -13.5%, COc1ccccc1NC(=O)c1sc2cccc(Cl)c2c1Cl -9.17%, CCOc1ccc(CCNC(=O)c2cc3c(=O)n(C)c4ccccc4c3s2)cc1OCC -3.95%, CC(C)c1ccc(NC(=O)c2cc3c(=O)oc4ccccc4c3s2)cc1 -3.59%, CC(C)Oc1ccc(CNC(=O)C2CCN(C(=O)N3CCOc4ccc(Cl)cc43)CC2)cc1 -14.8%, Cc1ccccc1-c1nc(NC(=O)CSc2ncnc3sc4c(c23)CCCC4)ns1 -8.33%, COc1ccc(N2CCN(C(CNC(=O)C(=O)NCc3ccc(C)cc3)c3cccnc3)CC2)cc1 (stereo unspecified) -7.71%, Cc1cccc(NC(=O)CSc2nc3ccccc3c3nc(CCn4cncc4C)nn23)c1 -19.4%, O=c1cc2nc(-c3ccccc3)nc(SCc3cccc(Br)c3)n2[nH]1 -11.9%, CCN1CCN(C(=O)Cn2ncc3c4ccccc4n(Cc4ccccc4F)c3c2=O)CC1 -11.5%, O=C(CC(c1cccs1)N1Cc2ccccc2C1=O)Nc1ccccc1 (stereo unspecified) -2.38%, COc1cccc(N2CCN(C(=O)c3cnc4c(C)cccn4c3=O)CC2)c1 22.7%, Cc1cccc(N2CCN(C(c3ccc(F)cc3)c3nnc(-c4ccccc4)o3)CC2)c1C (stereo unspecified) -17.7%, CCCCN(CCCC)C(=O)c1cc2c(=O)n3ccccc3nc2s1 -25.8%, Cc1ccc(Cl)cc1N1CCN(C(=O)C(C)n2ncn3cccc3c2=O)CC1 (stereo unspecified) 8.6%, Cc1cccc(N2CCN(S(=O)(=O)c3ccc(F)c(C(=O)Nc4cccc(Cl)c4C)c3)CC2C)c1 (stereo unspecified) -15.1%, CCNC(=O)c1c(NC(=O)c2cc(=O)c3ccc(C)c(C)c3o2)sc2c1CCCC2 -9.32%, Cc1ccc(-n2nc3c(=O)n(CCCC(=O)NCc4ccc(F)cc4)nc(C)c3c2C)cc1 -17.2%, Cc1cc(C)c(S(=O)(=O)NCC(c2ccco2)N2CCN(c3ccccc3)CC2)c(C)c1 (stereo unspecified) -1.67%, Cc1ccc2c(c1)-c1onc(C(=O)N3CCN(c4cccc(C)c4C)CC3)c1CO2 -6.43%, O=C(CN1CCN(Cc2ccc(F)cc2)C1=O)NCc1ccccc1 -2.77%, Cc1cc(C(F)(F)F)c2c(N)c(C(=O)Nc3c(Cl)cccc3Cl)sc2n1 -14.4%, COc1ccc(Nc2ncnc3c2cnn3C)c(OC)c1 -5.19%, Cc1nn(-c2ccccc2)c2c1cc1c(=O)[nH]c(=O)nc-1n2-c1cccc(C(F)(F)F)c1 0.138%, O=C(NCCSc1c(-c2ccc(Cl)cc2)[nH]c2ccccc12)c1ccc(S(=O)(=O)N2CCOCC2)cc1 -14%, Cc1ccc(S(=O)(=O)c2nc(-c3ccccc3)oc2N2CCCCCC2)cc1 -41.2%, Cc1cccc(OCC(=O)N(Cc2cccc(Cl)c2)Cc2ccco2)c1C -12%, CC(C)S(=O)(=O)c1oc(-c2ccc(F)cc2)nc1S(=O)(=O)c1ccc(F)cc1 -20%, COc1ccc2cc(-c3cn4c(n3)sc3cc(F)ccc34)c(=O)oc2c1 -7.76%, Cc1ccccc1CSc1nc(-c2ccccc2)nc2c1Cc1c(CO)cnc(C)c1O2 -9.17%, COc1cccc(C(=O)NCC(c2ccc(N(C)C)cc2)N2CCOCC2)c1OC (stereo unspecified) -27.3%, COc1ccc(/C=C/c2onc(C)c2S(=O)(=O)N2CCC(C(=O)N3CCC(C)CC3)CC2)cc1 -24.7%, COc1cccc(C2=NN(C(C)=O)C(c3cn(-c4ccccc4)nc3-c3cccs3)C2)c1 (stereo unspecified) -10.1%, CCCCNC(=O)CCn1c(=O)c2ccccc2n(Cc2cc(C)ccc2C)c1=O -6.98%, CCOc1ccc(CCNC(=O)CCc2cn(Cc3ccc(C)cc3)c3ccccc23)cc1 -7.96%, CC1CCN(S(=O)(=O)c2ccc3c(c2)N(CC(=O)N2CCN(c4ccc(Cl)cc4)CC2)C(=O)CO3)CC1 -3.78%, CC(C)CCNC(=O)N1CCN(S(=O)(=O)c2ccc3c(ccn3C)c2)CC1 -12%, CCOC(=O)c1c(S(=O)(=O)N2CCCC(C(=O)Nc3cc(C)ccc3OC)C2)c(C)n(C)c1C (stereo unspecified) -14%, COc1ccc2[nH]cc(CCNC(=O)Nc3ccc(F)cc3)c2c1 -24.6%, Cc1ccc(C)c(N2CCN(C(=O)c3cc(S(=O)(=O)N4CCCCC4)cn3C)CC2)c1 -6.08%, O=C(c1ccc(CSc2nc3ccncc3n2Cc2ccccc2F)cc1)N1CCCCCC1 -43.8%, CCCC(=O)Nc1nnc(SCc2cc(=O)c3cc(C)ccc3[nH]2)s1 -11.1%, CC(C[N+](C)(C)C)OC(N)=O (stereo unspecified) -11.6%, CCc1ccccc1N1CC(c2nc3ccccc3n2CC(C)C)CC1=O (stereo unspecified) -24.3%, CCC(C)NC(=O)C1CCN(C(=O)c2cc3sccc3n2Cc2ccc(Cl)cc2)CC1 (stereo unspecified) -0.0666%, Cc1ccc(C)c(S(=O)(=O)c2nnn3c2nc(N2CCCC2)c2sccc23)c1 -14.4%, COc1ccc(Nc2oc(-c3ccc(COc4ccc(OC)cc4)o3)nc2C#N)cc1 -24.3%, O=C(Cn1ncc2c3ccccc3n(Cc3ccc(Cl)cc3)c2c1=O)NCCCc1ccccc1 -11.9%, CC(C)c1ccc(Nc2cc(C(=O)NCCc3ccccc3)c3ccccc3n2)cc1 -9.54%, CC(=O)Nc1ccc(-n2cc3c(c2-c2ccc(C)cc2)c(=O)n(C)c(=O)n3C)cc1 -16%
